Experimental data published in the supplement of paper PMC5998384.

Assays:
HeLa Kyoto [1] = assay: thermal stability score vs G1/S (z-score of summed log2 fold changes over temperatures); higher = more thermally stable than in G1/S
HeLa Kyoto [2] = assay: melting temperature (median over replicates), in situ; higher = more thermally stable
HeLa Kyoto [3] = assay: solubility in G1/S (NP-40 vs SDS abundance) (log2 ratio); higher = more soluble; settings: cell cycle stage: G1/S
HeLa Kyoto [4] = assay: solubility change mitosis vs G1/S (difference of NP-40 vs SDS log2 ratios) (log2 ratio difference); higher = more soluble in mitosis
[5] = cell cycle stage: early G1 (4.5 h after nocodazole release)
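Wherever melting temperature (median over replicates), in situ is given: HeLa Kyoto cells synchronized by double thymidine or nocodazole block, proteins quantified by TMT10plex mass spectrometry, three independent biological replicates.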
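Wherever solubility change mitosis vs G1/S (difference of NP-40 vs SDS log2 ratios) is given: synchronized HeLa Kyoto cells (double thymidine block for G1/S, nocodazole release for mitosis), protein amounts in NP-40 versus SDS lysates quantified by mass spectrometry, three biological replicates.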
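Wherever solubility in G1/S (NP-40 vs SDS abundance) is given: HeLa Kyoto cells arrested at G1/S by double thymidine block, proteins quantified by TMT10plex mass spectrometry in mild NP-40 versus SDS extracts, three biological replicates.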
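Wherever thermal stability score vs G1/S (z-score of summed log2 fold changes over temperatures) is given: synchronized HeLa Kyoto cells, proteins quantified by TMT10plex mass spectrometry, three biological replicates, mitosis taken 0.5 h after nocodazole release, G1/S directly after double thymidine block.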

| Substance | thermal stability score (HeLa Kyoto [1]; [5]) | thermal stability score (HeLa Kyoto [1]; cell cycle stage: mitosis) | melting temperature (HeLa Kyoto [2]; cell cycle stage: G1/S) [°C] | melting temperature (HeLa Kyoto [2]; cell cycle stage: mitosis) [°C] | solubility in G1/S (log2) (HeLa Kyoto [3]) | solubility change mitosis (log2) (HeLa Kyoto [4]) |
| --- | --- | --- | --- | --- | --- | --- |
| APLP2 (sequence left out) | 3.53 | 2.78 | 55 | 54.8 | -0.151 | 0.0155 |
| RAD18 (sequence left out) | 1.96 | 4.07 | 46.6 | 49.8 | -0.132 | 0.148 |
